Measured values taken from PubChem BioAssay AID1745846 (National Center for Advancing Translational Sciences (NCATS), 2022).
The campaign covered roughly 1,400 compounds. About 30 (2%) were called active. The inconclusive results got no clear call from the source; some entries with a clear call stand among them for comparison. Calls follow the shape of the dose curve; as a rule, active = well fitted inhibition curve with a large enough effect; inconclusive = small, poorly fitted or top-dose-only effect; inactive = flat fitted curve, though single readings scatter. Where the call is inconclusive, the potency comes from a doubtful curve fit.

Assay: Firefly Luciferase Counterscreen for Inhibitors of ATXN expression
Settings: luminescence; series mostly up to 57.5 µM
Procedure, shortened: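 Recombinant firefly luciferase at 10 nM final in 50 mM Tris pH 7.5, 10 mM MgCl2, 0.05% BSA, 0.01% Tween20 with substrate; compounds up to 57 uM final, 10 min room temperature, end-point luminescence. Buffer-only wells define 100% inhibition.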
Potency is read from the fitted curve at half-maximal effect; tags tell the direction and shape of the fitted curve.

Row | Structure (SMILES) | Potency
1 | Cc1cc([N+](=O)[O-])nn1Cc1ccc(C(=O)N/N=C/c2ccc(O)cc2O)cc1 | inactive
2 | O=C(N/N=C/c1cc(Br)cc(Br)c1O)c1ccncc1 | inconclusive: 25.1 µM [inhibitor, partial curve, poor fit]
3 | Cc1ccc(-c2cc(-c3ccccc3)nc(NN)n2)cc1 | inconclusive: 28.2 µM [inhibitor, partial curve]
4 | Cc1cc(C)c(O)c(CN(C)Cc2cc(Cl)cc(Cl)c2O)c1 | inconclusive: 25.1 µM [inhibitor, partial curve]
5 | O=C(NCCc1cn2ccccc2n1)c1cc(COc2ccc3ncccc3c2)on1 | inconclusive: 25.1 µM [inhibitor, single point]
6 | Cc1ccc2ccc3cccnc3c2n1 | inconclusive: 28.2 µM [inhibitor, partial curve, poor fit]
7 | O=C(C(Br)=Cc1ccccc1)c1ccccc1 | inconclusive: 25.1 µM [inhibitor, partial curve]
8 | O=C(NNCc1ccccc1)c1ccccc1 | active: 10 µM
9 | COc1ccc(CNc2ncnc3c2[nH]c2ccccc23)cc1 | inconclusive: 25.1 µM [inhibitor, partial curve, poor fit]
10 | CN1OC[C@@H]2CN[C@H](c3ccc(-c4cc5ccccc5o4)cc3)C[C@@H]21 | active: 0.316 µM
11 | C/C(=N\OCC(=O)N/N=C/c1ccccc1O)c1cccs1 | inconclusive: 28.2 µM [inhibitor, partial curve, poor fit]
12 | CCC(=O)NC(c1ccco1)c1cc(Br)c2cccnc2c1O (centres undefined) | inconclusive: 15.8 µM [inhibitor, partial curve, poor fit]
13 | CCOC(=O)c1ccc(/C=C2/C=C(c3ccccc3)N(c3ccc(Cl)c(C(=O)O)c3)C2=O)cc1 | inconclusive: 25.1 µM [inhibitor, single point]
14 | COc1ccc(S(=O)(=O)Nc2ccc(F)cc2)cc1N(C)S(=O)(=O)c1ccc(Cl)cc1 | inactive
15 | CCOC(=O)Cc1cc(=O)n2[nH]c(C)c(-c3ccc(Cl)cc3)c2n1 | inconclusive: 25.1 µM [inhibitor, single point]
16 | COc1cc(/C=C/C(=O)CC(=O)/C=C/c2ccc(O)c(OC)c2)ccc1O | inconclusive: 22.4 µM [inhibitor, single point]
17 | O=C1C(SCCO)=C(SCCO)C(=O)c2ccccc21 | inconclusive: 12.6 µM [inhibitor, partial curve]
18 | COC(=O)Cc1ccc(NC(=S)N2CCN(c3cc(Cl)ccc3C)CC2)cc1 | inactive
19 | CC(C)Cn1c(/C=N/Nc2nc3ccccc3[nH]2)nc2ccccc21 | inconclusive: 14.1 µM [inhibitor, partial curve]
20 | COc1cccc(/C=N/NC(=O)Cn2nc(C)c([N+](=O)[O-])c2C)c1O | inactive
21 | C=CCc1cccc(/C=N/NC(=O)c2ccccc2Br)c1O | inconclusive: 25.1 µM [inhibitor, single point]

Row | Structure (SMILES) | Potency
22 | CSc1cccc(NC(=O)c2ccc(CN3CCc4ccccc4C3)cc2)c1 | inconclusive: 25.1 µM [inhibitor, single point]
23 | CCN(CC)c1ccc(/C=N/NC(=O)CCC(=O)NCc2ccccc2)c(O)c1 | inconclusive: 15.8 µM [inhibitor, partial curve, poor fit]
24 | CN(c1ccccc1)c1ccc(/C=N/NC(=O)CC#N)cc1 | inconclusive: 7.94 µM [inhibitor, partial curve, poor fit]
25 | O=C(N/N=C/c1cc(Cl)ccc1O)c1ccncc1 | inconclusive: 22.4 µM [inhibitor, partial curve, poor fit]
26 | COc1cc(OC)cc(-c2cc3nc(C)c(CCC(=O)NCc4ccccc4)c(C)n3n2)c1 | inconclusive: 28.2 µM [inhibitor, single point]
27 | Cc1ccc(NC(=O)CNC(=O)c2cccc(Cl)c2)nc1 | inconclusive: 28.2 µM [inhibitor, single point]
28 | Cc1ccsc1/C=C/C1=Cc2c(sc(NC(=O)CSc3n[nH]c(N)n3)c2C#N)C(C)(C)C1 | inconclusive: 25.1 µM [inhibitor, partial curve, poor fit]
29 | OCCN(Cc1ccccc1)CC(O)COc1ccc(-c2ccccc2)cc1 (centres undefined) | inconclusive: 28.2 µM [inhibitor, partial curve, poor fit]
30 | O=C(CN(c1cccc(Br)c1)S(=O)(=O)c1ccccc1)N/N=C/c1cc([N+](=O)[O-])ccc1O | inconclusive: 31.6 µM [inhibitor, partial curve, poor fit]
31 | CC(C)(C)c1ccc(C(=O)N2CCCCCC2=O)cc1 | inconclusive: 20 µM [inhibitor, partial curve, poor fit]
32 | C=CCn1c(CNc2ccc(C)cc2)nnc1SCC(=O)N/N=C/c1ccc(O)cc1O | inconclusive: 39.8 µM [inhibitor, partial curve, poor fit]
33 | COc1ccccc1/C=C/CN1CCCC(CO)(Cc2cccc(Cl)c2)C1 (centres undefined) | inactive
34 | Cc1ccc(Cl)cc1N1CCN(C(=O)CCS(=O)(=O)c2ccc3c(c2)NC(=O)CO3)CC1 | inactive
35 | CCCCOc1ccc(C(=O)NNC(=S)NC(=O)CC)cc1 | inactive
36 | COc1cc(NC(=O)c2cccc3c(-c4cnn(C)c4)coc23)cc(OC)c1OC | inconclusive: 15.8 µM [inhibitor, partial curve, poor fit]
37 | Cc1cc(N2CCN(C)CC2)ccc1NC(=O)c1ccc(-c2ccc(Cl)cc2)o1 | inconclusive: 25.1 µM [inhibitor, partial curve]
38 | N#Cc1nc(Cc2cccc3ccccc23)oc1NCc1ccc(F)cc1 | inactive
39 | COc1ccc(OCC(=O)N/N=C/c2cccc3cccnc23)cc1 | inconclusive: 22.4 µM [inhibitor, partial curve]
40 | COC(=O)c1ccccc1COc1cccn2c(N(C)Cc3cccs3)c(C)nc12 | inconclusive: 28.2 µM [inhibitor, single point]
41 | Cc1cccc(NC(=O)c2cc(-c3ccccn3)nc3ccccc23)c1C | inactive
42 | O=C(NC1=CC(=O)c2ccccc2C1=O)c1ccccc1 | active: 12.6 µM

Row | Structure (SMILES) | Potency
43 | Cc1cc(C)c(C(=O)/C=C/c2ccc(C(C)C)cc2)c(=O)[nH]1 | inconclusive: 14.1 µM [inhibitor, partial curve]
44 | O=C(N/N=C/c1cc(Cl)ccc1O)c1ccccc1Br | inconclusive: 15.8 µM [inhibitor, partial curve]
45 | O=C(N/N=C/c1cc(O)ccc1Br)c1cccnc1 | inconclusive: 25.1 µM [inhibitor, partial curve, poor fit]
46 | CCCCC(=O)NC(c1ccco1)c1cc(Cl)c2cccnc2c1O (centres undefined) | inconclusive: 15.8 µM [inhibitor, partial curve, poor fit]
47 | CC(C)(C)c1ccc(Oc2ccc(N)cc2)cc1 | inconclusive: 25.1 µM [inhibitor, single point]
48 | O=C(/C=C/c1ccccc1)NC(=S)NNC(=O)c1cnccn1 | inconclusive: 25.1 µM [inhibitor, partial curve, poor fit]
49 | O=C(NN=Cc1c(O)ccc2ccccc12)c1ccc2c(c1)OCO2 | inconclusive: 3.98 µM [inhibitor, partial curve]
50 | O=C(Nc1ccccc1NC(=O)NC1CCCCC1)NC1CCCCC1 | inconclusive: 28.2 µM [inhibitor, partial curve, poor fit]
51 | Cc1ccc(-c2cc(C(=O)NCCCN3CCOCC3)no2)cc1 | inconclusive: 28.2 µM [inhibitor, partial curve, poor fit]
52 | Cc1nc(N/N=C/c2ccc(O)cc2O)cc(N2CCOCC2)n1 | inconclusive: 28.2 µM [inhibitor, single point]
53 | COc1ccc(-c2csc(NC(=O)c3ccccc3NS(=O)(=O)c3ccc(F)c(F)c3)n2)cc1 | inconclusive: 28.2 µM [inhibitor, single point]
54 | O=C(NCCc1csc(-c2ccc(Cl)cc2)n1)c1ccco1 | inconclusive: 25.1 µM [inhibitor, partial curve, poor fit]
55 | C(=NN1CCCCCC1)c1ccc2ccccc2n1 | active: 0.1 µM
56 | Cc1nc2ccccc2c(=O)n1/N=C/c1cc(Br)ccc1O | inactive
57 | COc1cccc(/C=N/NC(=O)c2ccc(=O)n(C)c2)c1O | inconclusive: 28.2 µM [inhibitor, partial curve, poor fit]
58 | CN1CCC[C@H]1CCNc1ccc2c(=O)c3ccccc3n(C)c2c1 | inconclusive: 25.1 µM [inhibitor, partial curve]
59 | O=C(/C=C/c1ccccc1Cl)c1ccccc(=O)c1O | inconclusive: 31.6 µM [inhibitor, single point]
60 | O=C1C(Cl)=C(NCCc2ccccc2)C(=O)c2ccccc21 | inconclusive: 14.1 µM [inhibitor, partial curve]
61 | Cc1cc(C(=O)N/N=C/c2c(CO)cnc(C)c2O)c2ccccc2n1 | inactive
62 | Cc1cc(C)c2nc(NNC(=O)c3ccc(S(=O)(=O)N4CCCCC4)cc3)sc2c1 | inconclusive: 22.4 µM [inhibitor, partial curve, poor fit]
63 | CCCC(=O)NC(c1ccco1)c1cc(Cl)c2cccnc2c1O (centres undefined) | inconclusive: 14.1 µM [inhibitor, partial curve, poor fit]

Row | Structure (SMILES) | Potency
64 | O=C(CN1C(=O)C2CCCCC2C1=O)Nc1nc(-c2ccccn2)cs1 (centres undefined) | inconclusive: 22.4 µM [inhibitor, partial curve, poor fit]
65 | CCCc1ccc(O)c(N=Cc2cc(Br)cc(OCC)c2O)c1 | inconclusive: 25.1 µM [inhibitor, partial curve, poor fit]
66 | c1ccc(CNc2nc(-c3ccccn3)nc3ccccc23)cc1 | inactive
67 | COc1ccc2sc(-c3ccc(SC)cc3)c(-c3ccc(O)cc3)c2c1 | inactive
68 | CCOc1ccc(/C=C/[N+](=O)[O-])c2ccccc12 | inconclusive: 15.8 µM [inhibitor, partial curve]
69 | Nc1cccc2c1C(=O)N(C(=O)/C=C/c1cccc(Br)c1)C2=O | inconclusive: 22.4 µM [inhibitor, single point]
70 | Cc1ccc2nc(NNC(=O)c3ccc(S(=O)(=O)N4CCc5ccccc5C4)cc3)sc2c1 | inconclusive: 15.8 µM [inhibitor, partial curve, poor fit]
71 | COC(=O)c1sc(NC(=O)c2ccc(OC)cc2OC)nc1C | active: 0.1 µM
72 | Cc1ccc(NC(=O)CSc2ccc(Br)cc2)cc1S(=O)(=O)N1CCOCC1 | inconclusive: 28.2 µM [inhibitor, partial curve, poor fit]
73 | Cc1cccc(C2CC(c3ccccc3)=NN2c2ccc(S(N)(=O)=O)cc2)c1 (centres undefined) | inconclusive: 25.1 µM [inhibitor, partial curve]
74 | Cn1ncc2c(N3CCN(c4ccc(Cl)c(Cl)c4)CC3)ncnc21 | inactive
75 | CCn1cc(Cl)c(C(=O)N2N=C(c3ccc4ccccc4c3)CC2c2ccccc2O)n1 (centres undefined) | inactive
76 | CCCCn1c(=N)n(CCOc2ccc(C)cc2)c2ccccc21 | inactive
77 | S=C(Nc1ccc(Cl)c(Cl)c1)NC1CCCCC1 | inconclusive: 12.6 µM [inhibitor, partial curve, poor fit]
78 | CCn1c2ccccc2c2cc(/C=N/NC(=O)c3ccccc3)ccc21 | inactive
79 | CN(C(=O)c1cnc(N2CCN(c3ncccn3)CC2)c2ccccc12)c1ccc(Cl)cc1 | inactive
80 | O=C(N/N=C/c1ccccc1O)C1SCCCS1 | inconclusive: 22.4 µM [inhibitor, partial curve]
81 | Fc1ccc2[nH]c3c(N4CCSCC4)ncnc3c2c1 | inconclusive: 28.2 µM [inhibitor, partial curve, poor fit]
82 | CN(C)S(=O)(=O)c1cc(NC(=O)CSc2ncc(C(F)(F)F)cc2Cl)ccc1Cl | inconclusive: 25.1 µM [inhibitor, single point]
83 | CCOC(=O)C1CCN(c2ncnc3c2cnn3-c2ccc(Cl)cc2)CC1 | inconclusive: 15.8 µM [inhibitor, partial curve]
84 | CC(OC(=O)c1cc(Br)ccc1O)C(=O)Nc1ccc(S(=O)(=O)N2CCCC2)cc1 (centres undefined) | inactive
